# Assay results published in article PMC4336329 (PLoS ONE, 2015).
# Out of some 310,000 compounds screened, about 2,200 (0.71%) showed an effect of 50% or more. The effect is printed as a negative number. Some of the results follow. Where a SMILES comes first, the peptide text is derived from it. The star is where a group is joined. Cbz = O=C(OCc1ccccc1)*
# Biological target: human ether-à-go-go-related gene (hERG) potassium channel (human, UniProt Q12809)
# Experiment: primary screen, population patch clamp on CHO cells stably expressing hERG
# Sequence of human ether-à-go-go-related gene (hERG) potassium channel (Q12809 whole entry, looked up): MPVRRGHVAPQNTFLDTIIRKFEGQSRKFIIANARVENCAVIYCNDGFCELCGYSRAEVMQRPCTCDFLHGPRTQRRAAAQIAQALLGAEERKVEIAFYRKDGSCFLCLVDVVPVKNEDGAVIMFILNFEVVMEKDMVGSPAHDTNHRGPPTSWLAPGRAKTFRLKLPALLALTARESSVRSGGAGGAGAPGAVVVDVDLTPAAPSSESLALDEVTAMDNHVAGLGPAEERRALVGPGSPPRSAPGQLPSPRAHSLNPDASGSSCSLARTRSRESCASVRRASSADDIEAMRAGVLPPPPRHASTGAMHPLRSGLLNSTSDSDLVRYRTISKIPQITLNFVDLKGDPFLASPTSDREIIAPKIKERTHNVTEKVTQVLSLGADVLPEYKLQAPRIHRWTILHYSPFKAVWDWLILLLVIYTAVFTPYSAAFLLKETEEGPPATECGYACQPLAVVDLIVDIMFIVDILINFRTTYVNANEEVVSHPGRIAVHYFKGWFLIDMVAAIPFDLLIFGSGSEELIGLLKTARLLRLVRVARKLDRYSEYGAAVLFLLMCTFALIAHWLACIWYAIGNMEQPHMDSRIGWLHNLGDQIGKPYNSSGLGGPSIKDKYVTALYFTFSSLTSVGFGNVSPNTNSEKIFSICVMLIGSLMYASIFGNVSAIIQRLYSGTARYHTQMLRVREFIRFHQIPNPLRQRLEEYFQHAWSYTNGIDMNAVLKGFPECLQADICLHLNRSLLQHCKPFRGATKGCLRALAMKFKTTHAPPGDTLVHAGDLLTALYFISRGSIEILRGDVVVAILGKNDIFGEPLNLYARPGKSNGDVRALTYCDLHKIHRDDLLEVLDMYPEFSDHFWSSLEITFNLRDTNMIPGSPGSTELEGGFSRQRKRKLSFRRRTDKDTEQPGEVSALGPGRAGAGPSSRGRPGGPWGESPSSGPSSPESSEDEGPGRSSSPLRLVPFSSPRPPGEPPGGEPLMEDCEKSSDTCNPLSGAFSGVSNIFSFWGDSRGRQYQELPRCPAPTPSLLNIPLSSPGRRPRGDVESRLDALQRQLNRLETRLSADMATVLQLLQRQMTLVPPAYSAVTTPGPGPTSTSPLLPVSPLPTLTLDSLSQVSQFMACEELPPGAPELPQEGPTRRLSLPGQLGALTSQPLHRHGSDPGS
row,SMILES,"hERG current change (%, negative = inhibition) at 1uM [%]"
1,CCc1cc2c3c(c(=O)oc2cc1OC(C)C(=O)O)CCCC3 (stereo not shown),13.5
2,C/C(=N\NC(=O)CNc1cccc(C(F)(F)F)c1)c1cccc(Br)c1,5.75
3,O=C(N[C@@H](Cc1ccccc1)c1nc2ccccc2[nH]1)c1cc([N+](=O)[O-])ccc1Cl,5
4,O=S(=O)(c1ccccc1)N1N=C(c2ccccc2)CC1c1ccccc1 (stereo not shown),5.41
5,CS(=O)c1ccc(-n2c(=O)n(Cc3ccccc3)c(=O)c3[nH]cnc32)cc1 (stereo not shown),14.1
6,COC(=O)C1(C(O)C(=O)c2ccc(C)cc2C)CCCCC1 (stereo not shown),1.23
7,Cc1ccc([N+](=O)[O-])cc1NC(=O)CSc1nnc(C)n1CC1CCCO1 (stereo not shown),11.2
8,COC(=O)c1cc(NC(=O)c2cccc(C(F)(F)F)c2)c(=O)oc1C/C=N/OCc1cccc(Cl)c1Cl,13
9,O=C(NCCc1ccccc1)C(=O)NCCC1CCCCN1S(=O)(=O)c1ccccc1 (stereo not shown),10.9
10,O=C(CCNC(=O)c1ccccc1Cl)Nc1nc(-c2ccc3ccccc3c2)cs1,-0.833
11,N/C(=N\OC(=O)c1cc(-c2ccccc2)nc2ccccc12)c1cccnc1,11.7
12,CCSc1nnc(NC(=O)C2CCN(S(=O)(=O)c3c(C)c(C)cc(C)c3C)CC2)s1,8.42
13,CCCc1cc(C(=O)N2CCCC(N3CCN(c4ccc(F)cc4)CC3)C2)no1 (stereo not shown),-74.1
14,Cc1nc2ccccc2c2oc(C(=O)N3CCN(C4CCCCC4)CC3)cc12,-34
15,O=C(Nc1cc(Cl)ccc1-n1cncn1)c1cccs1,-1.35
16,CCOC(=O)CC1=CC(=O)Nc2ccccc2N1,-2.17
17,COc1ccc(CCNC(=O)CC(NC(=O)c2ccccc2Cl)c2ccccc2)cc1 (stereo not shown),14.5
18,Cc1cccc(N2CCC(N=CN(C)C)=N2)c1,7.38
19,Cc1nc(-c2ccc(S(=O)(=O)N3CCN(C(c4ccccc4)c4ccccc4)CC3)s2)cs1,6.73
20,Fc1ccc(OCc2nc(-c3cccs3)no2)cc1,10.3
21,COC(=O)C1=C(NC(=O)c2ccccc2C)CCS1,12
22,CC(NC(=O)CN(c1ccc(F)cc1)S(C)(=O)=O)c1ccccc1 (stereo not shown),12
23,O=C(COC(=O)c1nc(Cl)ccc1Cl)NC(=O)c1ccccc1,-0.711
24,O=C1c2ccccc2C2(c3ccccc3)NCCCN12 (stereo not shown),14
25,COc1ccccc1-n1cnnc1SCC(=O)N1CC(=O)Nc2ccccc21,1.99
26,CCN(CC(=O)NCc1ccc(F)cc1)C(=O)C(C)Oc1cccc(Cl)c1 (stereo not shown),-18.1
27,O=C(O)C1CCCCC1C(=O)Nc1ccc(F)cc1F (stereo not shown),3.17
28,C#CCN(C(=O)c1cc(COc2ccc(C)c(C)c2)on1)C1CCCCC1,11.2

row,SMILES,"hERG current change (%, negative = inhibition) at 1uM [%]"
1,CCOC(=O)c1[nH]c2ccccc2c1NC(=O)C1CCCC1,14.3
2,CCOc1ccc(NC(=S)N(CCN2CCOCC2)Cc2cc3cc4c(cc3[nH]c2=O)OCO4)cc1,-8.71
3,O=C1CCCN1c1ccc(S(=O)(=O)O)cc1.c1nc[nH]n1,10.7
4,Cc1nccn1CCCNCc1c(C(=O)N2CCCCCCC2)nc2ccc(Cl)cn12,-8.44
5,N#CC1=C(Nc2ccccc2Cl)SC(c2ccccc2O)NC1=O (stereo not shown),14.1
6,COc1ccc(CC(=O)Nc2ccccc2NC(=O)c2ccco2)cc1OC,0.804
7,CCC(Oc1ccc2c(c1)C(=O)CC(C)(C)O2)C(=O)NCCN1CCCCCC1.O=C(O)C(=O)O (stereo not shown),-9.15
8,O=C(CN1C(=O)NC(Cc2c[nH]c3ccccc23)C1=O)Nc1cccc(S(=O)(=O)N2CCCCCC2)c1 (stereo not shown),11
9,O=C(CCc1ccccc1Cl)NC1CCCN(c2ccc(C(F)(F)F)cn2)C1 (stereo not shown),25.1
10,O=C(CCC1COc2ccccc2O1)Nc1ncccc1O (stereo not shown),7.84
11,COc1ccc(C(C)=O)cc1CN1C(=O)NC(CC(C)C)C1=O (stereo not shown),9.56
12,COC(=O)c1ccc(C)c(NC(=O)Cc2coc3cc(OC)ccc23)c1,2.53
13,O=C(/C=C/c1cccc(C(F)(F)F)c1)N1CCN(c2ccccn2)CC1,7.71
14,CCOc1ccc2oc(C(=O)NC3CCN(Cc4ccccc4)CC3)c(C)c2c1.Cl,-5.6
15,CC(=O)N1CCc2cc(C(=O)CN3CCN(c4ccccc4F)CC3)ccc21,5.36
16,COc1ccc(C(CCN)c2ccc3c(c2)OCO3)cc1 (stereo not shown),13.6
17,O=C(CSc1nc2ccccc2c(=O)n1-c1ccc(F)cc1F)Nc1ccc(N2CCOCC2)cc1,-6.45
18,COc1ccc(C)cc1Nc1nc(N)c2cc(OC)c(OC)cc2n1,4.23
19,Cc1cccc(OCC(=O)NCc2nnc3ccc(C(F)(F)F)cn23)c1C,4.28
20,O=C(c1ccc2c(c1)OCO2)N1CCC2(CC1)Oc1ccc(F)cc1C(=O)C21CC(c2ccc(Cl)cc2)=NO1 (stereo not shown),7.01
21,COC(=O)c1cccc(N2CCCC2=O)c1,15.9
22,CCOC(=O)C1(CCc2ccccc2)CCN(C(=O)Cc2nonc2C)CC1,4.88
23,CSCCCNC(=S)Nc1cccc(S(=O)(=O)NC2=NCCC2)c1,0.701
24,Cc1nc2ccc(-c3nc4ccccc4[nH]3)cc2[nH]1,8.32
25,CCN1C(=NCCCCO)N[C@@H](c2cccc(F)c2)C(C(=O)OC)=C1C,9.87
26,CCOC(=O)Cc1csc(NC(=O)c2cnc3scc(C)n3c2=O)n1,16
27,CC(C)C(NC(=O)C(Cc1ccccc1)NC(=O)OCc1ccccc1)C(=O)O (stereo not drawn) (Cbz-Phe-Val-OH; configuration not given here),18.2
